# From PubChem BioAssay AID1956 (SRMLSC, 2009)
# Some of the results follow. The main result of the screen is listed elsewhere. These columns were measured beside it and carry no call.
# Assay: compounds boosting herpes simplex virus growth – fold increase, host cell viability (AID 1956); also: tested in PC3 cells
# Settings: HSV replication augmentation in cells; fold increase: measured here: primary screen fold increase 10 uM, at 10 µM, stronger effect = higher value; viability: measured here: host cell viability series, at 25 µM, stronger effect = lower value
SMILES,fold increase,viability
CC1=NN(c2ccc(C)c(C)c2)C(=O)C1C(c1cccc(O)c1)C1C(=O)N(c2ccc(C)c(C)c2)N=C1C (stereo not given),1.23,
COc1ccc(Cl)cc1N1Cc2ccccc2C1,1.18,
O=C1CNC(=S)N1CCc1ccc(Cl)cc1,1.39,101%
CCOC(=O)c1c(NC(=O)CCC(=O)O)sc2c1CC(C)(C)OC2,1.52,94.1%
COc1ccc(OC2C(=O)N(Cc3ccc4c(c3)OCO4)C2c2sccc2C)cc1 (stereo not given),1.4,73%
CC(OC(=O)c1c2c(nc3ccccc13)/C(=C\c1ccc3c(c1)OCO3)CCC2)C(=O)Nc1ccc(S(N)(=O)=O)cc1 (stereo not given),3.06,
CN1CCN(/N=C/c2ccc(-c3ccc([N+](=O)[O-])cc3Cl)o2)CC1,2.59,
Cc1ccc(S(=O)(=O)NC2(C(F)(F)F)NC(=O)N(CCc3ccccc3)C2=O)cc1 (stereo not given),1.32,
O=C(CSc1nnc(C2COc3ccccc3O2)o1)N1CCCCC1 (stereo not given),1.45,98.1%
NS(=O)(=O)c1ccc(NC(=O)COC(=O)c2c3c(nc4ccccc24)/C(=C\c2ccc4c(c2)OCO4)CCC3)cc1,1.47,71.3%
CN(Cc1ncc[nH]1)C(=O)CC1C(=O)NCCN1Cc1c(F)cccc1Cl (stereo not given),1.47,101%
COc1cc(-c2cc(OC)c3c(C)oc(C)c3c(=O)c2)ccc1O,2.06,78.5%
Cc1nnc(SCC(=O)Nc2ccc3c(c2)OCCO3)s1,1.33,98.9%
CCOC(=O)Cc1csc(NC(=O)Nc2cccc(OC)c2)n1,1.36,95.8%
COc1ccccc1CNC(=O)Cn1cc2c(n1)CCCC2,1.43,103%
Cc1ccc(C(=O)NN2C(=O)/C(=C/c3cn(C)c4ccccc34)SC2=S)cc1,1.87,99.2%
C/C(=C\C(=S)Nc1ccccc1)Nc1ccccc1,1.32,
CCSc1nnc(-c2sc3nnc(-c4ccccc4)c(-c4ccccc4)c3c2N)o1,2.22,92.6%
Cc1ccc(Cn2c(=N)n(CC(O)c3ccco3)c3ccccc32)cc1 (stereo not given),1.74,64.4%
CCN(CC)CCNC(=O)c1ccc(CS(=O)(=O)c2ccc(Br)cc2)o1,1.39,99.5%
O=C1Nc2ccccc2/C1=C/c1cnc(-c2ccccc2)[nH]1,7.97,98.8%
Cc1nn(-c2ccccc2)c(N2CCCC2)c1/C=N/n1cnc2scc(-c3ccccc3)c2c1=O,1.1,
Cc1ccc(NCc2nnc(SCC(=O)O)n2Cc2ccccc2)cc1Cl,1.38,

SMILES,fold increase,viability
CCOc1cc(/C=C2/SC(=S)N(CC3CCCO3)C2=O)ccc1O (stereo not given),5.32,92%
Cc1nc(SCC(=O)NCCc2ccc(Cl)cc2)nc(C)c1C,1.45,92.5%
CC(C)OC(=O)CC(=O)CSc1nc(-c2ccc(F)cc2)cc(-c2ccccc2)c1C#N,1.33,93.5%
Cc1cc(S(=O)(=O)NC2CCCCC2)c(C)s1,1.33,98.1%
Nc1c(C(=O)C2CC2)sc2nc(-c3ccccc3)cc(C(F)(F)F)c12,2.29,97.5%
CCOC(=O)N1CCC(NC(=O)CCCC(=O)O)CC1,1.39,99.5%
CN1/C(=C\C=C(/C#N)C(=O)Nc2ccccc2F)C(C)(C)c2ccccc21,2.24,95.2%
CCOc1cc(/C=C2\SC(=S)N(N3CCOCC3)C2=O)ccc1O,2.02,92.3%
COc1cc(/C=C(\C#N)c2nc3ccccc3[nH]2)cc(Br)c1OCc1ccc(F)cc1,1.28,
O=c1[nH]c(S)c(/C=C2\C=Nc3ccccc32)s1,1.46,98.8%
Cc1cc(C)c[n+](-c2nc3ccccc3nc2[N-]S(=O)(=O)c2ccc(Cl)cc2)c1,1.42,102%
Cc1cc(-c2n[nH]c(=S)n2/N=C/c2ccccc2[N+](=O)[O-])n[nH]1,1.44,103%
O=C(COc1ccccc1-c1ccccc1)NCc1cccc(Cl)c1,1.32,
CCN(CC)c1ccc2cc(C#N)c(=O)oc2c1,2.63,102%
CN(Cc1ccccc1)C(=O)c1ccccc1NC(=O)c1ccccc1,1.49,104%
CCOc1ccccc1C1CC(c2cccs2)=NN1S(C)(=O)=O (stereo not given),1.35,
Cc1cccc(NC(=O)CN2C(=O)N/C(=C/c3ccc(C)s3)C2=O)c1,1.36,
CCOC(=O)c1c(NC(=S)Nc2ccccc2)sc2c1CC(C)(C)SC2,2.04,91.5%
N#C/C(=C/c1ccc(N2CCOCC2)o1)C(=O)Nc1ccccc1,5.34,93.8%
COc1cccc(/C=N/n2c(SC)nnc2-c2ccccc2)c1O,2.62,71%
O=C(Nc1ccccc1F)C(=Cc1sc(N2CCOCC2)nc1-c1ccccc1)C(=O)Nc1ccccc1F,1.57,
Cc1cc(C(=O)NC(C)c2ccncc2)cs1 (stereo not given),1.32,93.2%
N#C/C(=C\c1ccc(F)cc1)c1nc(-c2ccco2)cs1,1.35,97.6%

SMILES,fold increase,viability
O=[N+]([O-])c1ccc(N/N=C/c2cn(Cc3ccc(F)cc3)c3ccccc23)nc1,1.76,74.2%
CCOC(=O)CC(=O)CSc1nc2ccc(C)cc2cc1C#N,1.42,75.9%
Cc1ccc(-c2nc(NC(=O)CSc3nnc4scc(-c5ccccc5)n34)ns2)cc1,1.34,77.3%
CCN(CC)c1ccc(/C=C(\C#N)c2nc(-c3cccs3)c(NC(C)=O)s2)cc1,9.42,
CCCCC(=O)Nc1ccc(C(=O)Nc2ccc(OC)cc2[N+](=O)[O-])cc1,1.72,99.3%
CCOC(=O)/C(=C\C=C1/Sc2ccccc2N1CC)C(C)=O,7.92,93%
CCCN1C(=O)/C(=C\C=C2/Sc3ccccc3N2CCO)SC1=S,2.03,86.1%
CN(C)c1ccc(/C=C2\SC(=O)N(CCc3nnc(N)s3)C2=O)cc1,1.67,88.2%
Cc1ccc(NC(=O)/C=C/c2ccc([N+](=O)[O-])s2)c(C)c1,5.61,14.8%
COC(=O)C1(C(=O)OC)NOC2C(=O)N(c3ccccc3)C(=O)C21 (stereo not given),1.44,92.5%
CCCn1c(N)c(N(CCOC)C(=O)/C=C/c2cccc(Cl)c2)c(=O)[nH]c1=O,1.38,99.9%
CN(C)C=Nc1c(Br)cc(Br)c2nonc12,5.38,96.8%
COc1ccc(Cl)cc1-c1n[nH]c(=S)n1C1CCCCC1,1.24,
COc1ccc(OC)c(-n2nnnc2SCC(=O)NCc2ccc3c(c2)OCO3)c1,1.32,102%
c1ccc(C[n+]2c(-c3ccccc3)csc2Nc2ccccc2)cc1,1.32,
CCN1/C(=C\C=C(C(C)=O)C(C)=O)Sc2ccccc21,3.28,
CCCC1=NN2C(=N)/C(=C\c3ccc(SCc4ccco4)o3)C(=O)N=C2S1,2.41,94.2%
Cc1cccc(NC(=S)NNC(=O)c2cccc([N+](=O)[O-])c2)c1,1.51,97.7%
COc1ccc(C2CC(c3ccccc3)=NN2c2ccc(/C=N/NC(=O)c3ccncc3)cc2)cc1 (stereo not given),1.13,
CC(=O)/C(C#N)=C1\NC(=O)C(Cc2ccccc2)S1 (stereo not given),1.24,82.7%
CCC(C)N1C(=O)/C(=C/c2c(NCCCOC(C)C)nc3c(C)cccn3c2=O)SC1=S (stereo not given),6.27,86.5%
CCOC(=O)/C(=C/C=C1\Sc2cc(C)c(C)cc2N1CC)C(C)=O,5.63,80.2%
CCOCCCNc1nc2c(C)cccn2c(=O)c1/C=C1\SC(=S)N(C(C)CC)C1=O (stereo not given),8.98,

SMILES,fold increase,viability
CCN=C1S/C(=C\c2cc(OCC)c(O)cc2Br)C(=O)N1CC,1.55,64.4%
COc1ccc(-n2c(C)cc(/C=C3\SC(=S)N(Cc4ccco4)C3=O)c2C)cc1,1.51,97.6%
COc1ccc(O)c(C(=O)c2cc(C#N)c(=O)n(-c3ccc(Cl)cc3)c2)c1,2.8,87.1%
CN(C)c1ccc(/C=C(\C#N)C(=O)Nc2nc3c(s2)CCN(Cc2ccccc2)C3)cc1,4.61,94.7%
CCCCCCn1cnc2c(c1=O)c1nc3ccccc3nc1n2Cc1cccs1,1.16,
CC(C)(C)C(=O)N=C1SC2CS(=O)(=O)CC2N1c1ccc2c(c1)OCO2 (stereo not given),1.34,91%
O=C(CC1Nc2ccccc2NC1=O)Nc1ccccc1NC(=O)CC1Nc2ccccc2NC1=O (stereo not given),1.8,96.5%
O=C(O)CCCCCN1C(=O)/C(=C\c2ccc(-c3ccc(Cl)cc3)o2)SC1=S,1.98,
COc1ccccc1C1C([N+](=O)[O-])=CC([N+](=O)[O-])=CN1C (stereo not given),1.59,85.5%
O=C(c1ccc2c(c1)OCCO2)C1CCN(C(=O)c2ccc(F)c(F)c2)CC1,1.45,80.9%
O=C1NCC(c2ccccc2)C1C(=O)N/N=C\c1ccc(-c2ccc(Cl)c(Cl)c2)o1 (stereo not given),1.12,
Cc1cc(C)cc(-n2c(N)c(C(=O)Nc3c(C)n(C)n(-c4ccccc4)c3=O)c3nc4ccccc4nc32)c1,1.4,
O=C(O)CN1C(=O)/C(=C\c2cn(CC(=O)N3CCOCC3)c3ccccc23)SC1=S,4.5,96.3%
O=[N+]([O-])c1ccc(S(=O)(=O)N2CCSC2c2ccco2)cc1 (stereo not given),1.41,101%
C=CCSc1nnc(-c2c[nH]c3ccccc23)n1CCOC,1.37,93.1%
O=c1c2c(ncn2C2CCCC2)n(Cc2ccccc2)c(=O)n1CCOc1ccc(Br)cc1,1.44,85.4%
CCN(CC)c1ccc(/C=C2\C(=O)c3ccc(C(=O)O)cc3C2=O)cc1,1.42,96.3%
CCOC(=O)/C(=C\C=C1/Sc2cc(OCC)c(OCC)cc2N1CC)C(C)=O,7.27,61.3%
N#C/C(=C\c1ccc(OC(=O)c2ccccn2)cc1)C(N)=O,1.38,99.9%
CC1CCN(c2ccccc2NC(=S)NC(=O)c2ccco2)CC1,1.49,88.7%
CCC(O)(CC)C(=O)N/N=C/c1cc(Br)cc(Br)c1O,1.63,93.4%
Cc1ccc(N2C(=O)C3C(C(=O)c4ccccc4)=NN(c4ccccc4)C3C2=O)cc1 (stereo not given),2.38,95.7%
CC1=NN(c2nc(-c3ccc(C)cc3)cs2)C(=O)C1N=Nc1ccccc1O (stereo not given),4.9,
